Reference: the supplement of paper PMC8728848
The other results are listed elsewhere or left out.

Legend:
Assay in all cases: glycan array binding signal (z-score within array); higher = stronger binding
Settings in all cases: glycan notation: IUPAC condensed, linker removed; mutation: E347A
Gal(b1-2)Gal = molecular target: Gal(b1-2)Gal
In short: (§1)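 Arrays were curated from the Consortium for Functional Glycomics database, 3228 in total, and kept only where the protein sequence was available. Binding is expressed as a within-array Z-score. This score was averaged across arrays of the same protein sequence at different concentrations or buffers and across linkers, and negative values can be read as non-binding.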

Gal(b1-3)Gal = molecular target: Gal(b1-3)Gal
In short: as §1

Gal(b1-3)Gal(b1-4)GlcNAc = molecular target: Gal(b1-3)Gal(b1-4)GlcNAc
In short: as §1

Gal(b1-3)GalNAc = molecular target: Gal(b1-3)GalNAc
In short: as §1

[1] = molecular target: Gal(b1-3)GalNAc(b1-3)Gal(a1-4)Gal(b1-4)Glc
In short: as §1

[2] = molecular target: Gal(b1-3)GalNAc(b1-4)Gal(b1-4)Glc
In short: as §1

[3] = molecular target: Gal(b1-3)GalNAc(b1-4)[Neu5Ac(a2-3)]Gal(b1-4)Glc
In short: as §1

Gal(b1-3)GlcNAc = molecular target: Gal(b1-3)GlcNAc
In short: as §1

[4] = molecular target: Gal(b1-3)GlcNAc(b1-2)Man(a1-3)[Gal(b1-3)GlcNAc(b1-2)Man(a1-6)]Man(b1-4)GlcNAc(b1-4)GlcNAc
In short: as §1

[5] = molecular target: Gal(b1-3)GlcNAc(b1-3)Gal(b1-3)GlcNAc
In short: as §1

[6] = molecular target: Gal(b1-3)GlcNAc(b1-3)Gal(b1-4)Glc
In short: as §1

[7] = molecular target: Gal(b1-3)GlcNAc(b1-3)Gal(b1-4)GlcNAc
In short: as §1

[8] = molecular target: Gal(b1-3)[Fuc(a1-4)]GlcNAc
In short: as §1

[9] = molecular target: Gal(b1-3)[Fuc(a1-4)]GlcNAc(b1-3)Gal(b1-3)[Fuc(a1-4)]GlcNAc
In short: as §1

[10] = molecular target: Gal(b1-3)[Fuc(a1-4)]GlcNAc(b1-3)Gal(b1-4)GlcNAc
In short: as §1

[11] = molecular target: Gal(b1-3)[Fuc(a1-4)]GlcNAc(b1-3)Gal(b1-4)[Fuc(a1-3)]GlcNAc
In short: as §1

[12] = molecular target: Gal(b1-3)[GlcNAc(b1-6)]GalNAc
In short: as §1

[13] = molecular target: Gal(b1-3)[Neu5Ac(a2-6)]GalNAc
In short: as §1

[14] = molecular target: Gal(b1-3)[Neu5Ac(a2-6)]GlcNAc(b1-6)Gal(b1-4)Glc
In short: as §1

[15] = molecular target: Gal(b1-3)[Neu5Ac(b2-6)]GalNAc
In short: as §1

[16] = molecular target: Gal(b1-4)GalNAc(a1-3)[Fuc(a1-2)]Gal(b1-4)GlcNAc
In short: as §1

[17] = molecular target: Gal(b1-4)GalNAc(b1-3)[Fuc(a1-2)]Gal(b1-4)GlcNAc
In short: as §1

Gal(b1-4)Glc = molecular target: Gal(b1-4)Glc
In short: as §1

Gal(b1-4)Glc6S = molecular target: Gal(b1-4)Glc6S
In short: as §1

Gal(b1-4)GlcNAc = molecular target: Gal(b1-4)GlcNAc
In short: as §1

[18] = molecular target: Gal(b1-4)GlcNAc(a1-6)Gal(b1-4)GlcNAc
In short: as §1

[19] = molecular target: Gal(b1-4)GlcNAc(b1-2)Man(a1-3)[Gal(b1-4)GlcNAc(b1-2)Man(a1-6)]Man(b1-4)GlcNAc(b1-4)GlcNAc
In short: as §1

[20] = molecular target: Gal(b1-4)GlcNAc(b1-3)Gal(b1-3)GlcNAc
In short: as §1

[21] = molecular target: Gal(b1-4)GlcNAc(b1-3)Gal(b1-4)Glc
In short: as §1

[22] = molecular target: Gal(b1-4)GlcNAc(b1-3)Gal(b1-4)GlcNAc
In short: as §1

[23] = molecular target: Gal(b1-4)GlcNAc(b1-3)Gal(b1-4)GlcNAc(b1-3)Gal(b1-4)GlcNAc
In short: as §1

[24] = molecular target: Gal(b1-4)GlcNAc(b1-3)Gal(b1-4)[Fuc(a1-3)]GlcNAc(b1-3)Gal(b1-4)[Fuc(a1-3)]GlcNAc
In short: as §1

[25] = molecular target: Gal(b1-4)GlcNAc(b1-3)GalNAc
In short: as §1

[26] = molecular target: Gal(b1-4)GlcNAc(b1-3)[Gal(b1-4)GlcNAc(b1-6)]Gal(b1-4)GlcNAc
In short: as §1

[27] = molecular target: Gal(b1-4)GlcNAc(b1-3)[GlcNAc(b1-6)]Gal(b1-4)GlcNAc
In short: as §1

[28] = molecular target: Gal(b1-4)GlcNAc(b1-6)Gal(b1-4)GlcNAc
In short: as §1

[29] = molecular target: Gal(b1-4)GlcNAc(b1-6)Gal(b1-4)GlcNAc(b1-6)GalNAc
In short: as §1

[30] = molecular target: Gal(b1-4)GlcNAc(b1-6)GalNAc
In short: as §1

[31] = molecular target: Gal(b1-4)GlcNAc(b1-6)[Gal(b1-3)]GalNAc
In short: as §1

Gal3S(b1-3)GalNAc = molecular target: Gal3S(b1-3)GalNAc
In short: as §1

Gal3S(b1-3)GlcNAc = molecular target: Gal3S(b1-3)GlcNAc
In short: as §1

[32] = molecular target: Gal3S(b1-3)[Fuc(a1-4)]GlcNAc
In short: as §1

Gal3S(b1-4)Glc = molecular target: Gal3S(b1-4)Glc
In short: as §1

Gal3S(b1-4)Glc6S = molecular target: Gal3S(b1-4)Glc6S
In short: as §1

Gal3S(b1-4)GlcNAc = molecular target: Gal3S(b1-4)GlcNAc
In short: as §1

Gal3S(b1-4)GlcNAc6S = molecular target: Gal3S(b1-4)GlcNAc6S
In short: as §1

[33] = molecular target: Gal3S(b1-4)[Fuc(a1-3)]Glc
In short: as §1

Gal3S4S(b1-4)GlcNAc = molecular target: Gal3S4S(b1-4)GlcNAc
In short: as §1

Gal3S6S(b1-4)GlcNAc = molecular target: Gal3S6S(b1-4)GlcNAc
In short: as §1

Gal3S6S(b1-4)GlcNAc6S = molecular target: Gal3S6S(b1-4)GlcNAc6S
In short: as §1

Gal4S(b1-4)GlcNAc = molecular target: Gal4S(b1-4)GlcNAc
In short: as §1

Gal4S6S(b1-4)GlcNAc = molecular target: Gal4S6S(b1-4)GlcNAc
In short: as §1

Gal6S(b1-4)Glc = molecular target: Gal6S(b1-4)Glc
In short: as §1

Gal6S(b1-4)Glc6S = molecular target: Gal6S(b1-4)Glc6S
In short: as §1

Gal6S(b1-4)GlcNAc = molecular target: Gal6S(b1-4)GlcNAc
In short: as §1

Gal6S(b1-4)GlcNAc6S = molecular target: Gal6S(b1-4)GlcNAc6S
In short: as §1

GalNAc(a1-3)Gal = molecular target: GalNAc(a1-3)Gal
In short: as §1

GalNAc(a1-3)GalNAc = molecular target: GalNAc(a1-3)GalNAc
In short: as §1

GalNAc(b1-3)Gal = molecular target: GalNAc(b1-3)Gal
In short: as §1

[34] = molecular target: GalNAc(b1-3)Gal(a1-4)Gal(b1-4)GlcNAc
In short: as §1

B1: Surfactant Protein D (Human); Neck + Carbohydrate Recognition Domain (NCRD) (Homo sapiens) (protein)
chain: MLLFLLSALVLLTQPLGYLEAEMKTYSHRTMPSACTLVMCSSVESGLPGRDRDGREGPRGEKGDPGLPGAAGQAGMPGQAGPVGPKGDNGSVGEPGPKGDTGPSGPPGPPGVPGPAGREGALGKQGNIGPQGKPGPKGEAGPKGEVGAPGMQGSAGARGLAGPKGERGVPGERGVPGNTGAAGSAGAMGPQGSPGARGPPGLKGDKGIPGDKGAKGESGLPDVASLRQQVEALQGQVQHLQAAFSQYKKVELFPNGQSVGEKIFKTAQFVKPFTEAQLLCTQAGGQLASPRSAAENAALQQLVVAKNEAAFLSMTDSKTEGKFTYPTGESLVYSNWAPGEPNDDGGSADCVEIFTNGKWNDRACGAKRLVVCEF
- glycan array binding signal (z-score) (Gal(b1-2)Gal): -0.48
- glycan array binding signal (z-score) (Gal(b1-3)Gal): -0.232
- glycan array binding signal (z-score) (Gal(b1-3)Gal(b1-4)GlcNAc): -0.237
- glycan array binding signal (z-score) (Gal(b1-3)GalNAc): -0.293
- glycan array binding signal (z-score) [1]: -0.446
- glycan array binding signal (z-score) [2]: -0.19
- glycan array binding signal (z-score) [3]: 0.087
- glycan array binding signal (z-score) (Gal(b1-3)GlcNAc): -0.046
- glycan array binding signal (z-score) [4]: -0.351
- glycan array binding signal (z-score) [5]: -0.162
- glycan array binding signal (z-score) [6]: -0.274
- glycan array binding signal (z-score) [7]: -0.211
- glycan array binding signal (z-score) [8]: -0.164
- glycan array binding signal (z-score) [9]: -0.057
- glycan array binding signal (z-score) [10]: -0.057
- glycan array binding signal (z-score) [11]: -0.462
- glycan array binding signal (z-score) [12]: -0.15
- glycan array binding signal (z-score) [13]: 0.169
- glycan array binding signal (z-score) [14]: -0.424
- glycan array binding signal (z-score) [15]: -0.188
- glycan array binding signal (z-score) [16]: -0.127
- glycan array binding signal (z-score) [17]: -0.491
- glycan array binding signal (z-score) (Gal(b1-4)Glc): -0.423
- glycan array binding signal (z-score) (Gal(b1-4)Glc6S): -0.101
- glycan array binding signal (z-score) (Gal(b1-4)GlcNAc): -0.359
- glycan array binding signal (z-score) [18]: -0.244
- glycan array binding signal (z-score) [19]: -0.49
- glycan array binding signal (z-score) [20]: -0.253
- glycan array binding signal (z-score) [21]: -0.174
- glycan array binding signal (z-score) [22]: 0.532
- glycan array binding signal (z-score) [23]: -0.292
- glycan array binding signal (z-score) [24]: -0.248
- glycan array binding signal (z-score) [25]: -0.384
- glycan array binding signal (z-score) [26]: 0.161
- glycan array binding signal (z-score) [27]: -0.287
- glycan array binding signal (z-score) [28]: -0.317
- glycan array binding signal (z-score) [29]: 0.971
- glycan array binding signal (z-score) [30]: -0.112
- glycan array binding signal (z-score) [31]: -0.346
- glycan array binding signal (z-score) (Gal3S(b1-3)GalNAc): -0.034
- glycan array binding signal (z-score) (Gal3S(b1-3)GlcNAc): 0.156
- glycan array binding signal (z-score) [32]: 0.518
- glycan array binding signal (z-score) (Gal3S(b1-4)Glc): 0.128
- glycan array binding signal (z-score) (Gal3S(b1-4)Glc6S): 0.558
- glycan array binding signal (z-score) (Gal3S(b1-4)GlcNAc): 0.095
- glycan array binding signal (z-score) (Gal3S(b1-4)GlcNAc6S): 0.483
- glycan array binding signal (z-score) [33]: 0.432
- glycan array binding signal (z-score) (Gal3S4S(b1-4)GlcNAc): 0.14
- glycan array binding signal (z-score) (Gal3S6S(b1-4)GlcNAc): 0.47
- glycan array binding signal (z-score) (Gal3S6S(b1-4)GlcNAc6S): 0.143
- glycan array binding signal (z-score) (Gal4S(b1-4)GlcNAc): 0.027
- glycan array binding signal (z-score) (Gal4S6S(b1-4)GlcNAc): 0.368
- glycan array binding signal (z-score) (Gal6S(b1-4)Glc): 0.097
- glycan array binding signal (z-score) (Gal6S(b1-4)Glc6S): 0.876
- glycan array binding signal (z-score) (Gal6S(b1-4)GlcNAc): 0.523
- glycan array binding signal (z-score) (Gal6S(b1-4)GlcNAc6S): -0.418
- glycan array binding signal (z-score) (GalNAc(a1-3)Gal): 0.211
- glycan array binding signal (z-score) (GalNAc(a1-3)GalNAc): -0.192
- glycan array binding signal (z-score) (GalNAc(b1-3)Gal): -0.445
- glycan array binding signal (z-score) [34]: -0.455
